Laboratory results from PubChem BioAssay AID504332 (National Center for Advancing Translational Sciences (NCATS), 2011).
Hit rate of the full screen: of about 350,000 compounds, about 31,000 (8.9%) were called active. The inconclusive results got no clear call from the source; some entries with a clear call stand among them for comparison. The call rests on the fitted dose curve; in most records, active means well fitted inhibition curve with a large enough effect; inconclusive means small, poorly fitted or top-dose-only effect; inactive means no such curve, though single readings can be large or run the other way. Potencies beside an inconclusive call are fits to weak or partial responses and may not hold up.
Further: nearly all actives have a fitted effect of over 75% in size.
On the % scale 0 is the no-effect control and ±100 the full control effect; potency means the concentration at half of the fitted maximal effect; tags describe the fitted curve by direction and shape.

These compounds were tested against Histone-lysine N-methyltransferase EHMT2 (Homo sapiens) (UniProt Q96KQ7) (assay: qHTS Assay for Inhibitors of Histone Lysine Methyltransferase G9a). Conditions: G9a H3K9 monomethylation, AlphaScreen, 2 h; activity, negative = inhibition: at 59 µM (top of the series) unless noted.
Sequence of UniProt Q96KQ7 (Q96KQ7 whole entry, looked up): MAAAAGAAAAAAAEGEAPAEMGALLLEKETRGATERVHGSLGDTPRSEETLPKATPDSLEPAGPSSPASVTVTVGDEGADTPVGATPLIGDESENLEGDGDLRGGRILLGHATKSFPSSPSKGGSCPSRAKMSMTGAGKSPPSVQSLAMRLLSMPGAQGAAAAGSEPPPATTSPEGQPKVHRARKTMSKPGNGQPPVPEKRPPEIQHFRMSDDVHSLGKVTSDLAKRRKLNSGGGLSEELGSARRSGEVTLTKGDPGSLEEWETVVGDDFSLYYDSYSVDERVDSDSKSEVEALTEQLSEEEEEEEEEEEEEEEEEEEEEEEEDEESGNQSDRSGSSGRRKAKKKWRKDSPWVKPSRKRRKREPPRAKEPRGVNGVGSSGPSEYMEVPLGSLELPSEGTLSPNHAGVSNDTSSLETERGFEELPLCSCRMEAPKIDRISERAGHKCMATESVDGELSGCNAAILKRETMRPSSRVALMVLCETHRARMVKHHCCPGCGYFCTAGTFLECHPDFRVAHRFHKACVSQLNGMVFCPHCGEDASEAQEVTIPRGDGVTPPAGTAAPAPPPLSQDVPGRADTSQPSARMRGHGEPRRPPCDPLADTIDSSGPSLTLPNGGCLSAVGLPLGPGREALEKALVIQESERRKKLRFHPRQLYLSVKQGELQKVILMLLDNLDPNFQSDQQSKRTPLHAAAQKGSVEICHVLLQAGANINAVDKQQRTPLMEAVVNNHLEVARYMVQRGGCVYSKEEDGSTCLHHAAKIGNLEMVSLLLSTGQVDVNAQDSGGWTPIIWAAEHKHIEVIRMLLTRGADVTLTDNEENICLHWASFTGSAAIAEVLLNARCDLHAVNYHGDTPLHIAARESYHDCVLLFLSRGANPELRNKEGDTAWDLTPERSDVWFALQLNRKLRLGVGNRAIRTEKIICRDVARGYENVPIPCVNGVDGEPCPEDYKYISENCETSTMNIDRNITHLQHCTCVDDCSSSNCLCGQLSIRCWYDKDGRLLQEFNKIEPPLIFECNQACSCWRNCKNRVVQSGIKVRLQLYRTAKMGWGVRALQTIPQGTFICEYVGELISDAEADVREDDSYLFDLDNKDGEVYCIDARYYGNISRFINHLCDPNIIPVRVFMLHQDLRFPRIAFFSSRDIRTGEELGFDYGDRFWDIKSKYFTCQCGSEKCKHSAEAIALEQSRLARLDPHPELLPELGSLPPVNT
Procedure, shortened: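 Enzyme 20 nM + cpd, 15 min RT; add b-H3K9 pep 500 nM / SAM 20 uM; 2 h RT; anti-H3K9me1 Ab 0.5 ug/mL + SA donor / anti-rabbit acceptor beads 20 ug/mL each, 10 min; AlphaScreen read.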
`Oc1ccccc1/C=N/Nc1cc(N2CCCC2)nc(N2CCCC2)n1` was tested, and the Potency was inconclusive: 22.4 µM [inhibitor, single point].
In the case of `Cc1ccccc1NC(=O)c1nc2nccc(C)n2n1`, the Potency is reported as “inactive”.
For `O=C(N/N=C/c1ccc([N+](=O)[O-])cc1)c1cccs1`, the Potency was active: 50.1 µM.
In the case of `CCCCn1nnnc1SCC(=O)Nc1sc2c(c1C#N)CCCC2`, the Potency is reported as inconclusive: 79.4 µM [inhibitor, partial curve, poor fit].
With `O=S1(=O)CCC(NCC2CCCO2)C1` (centres undefined) the Potency was active: 50.1 µM.
With `O=C(NC1CCC(=O)N(CCOc2ccccc2)CC1)OCc1ccccc1` (centres undefined) the Potency was “inactive”.
With `Cc1cc(=O)oc(C)c1C(=O)N1CCN(C(c2ccccc2)c2ccccc2)CC1` the Potency was active: 50.1 µM.
In the case of `Cc1cc(/C=N/Nc2ccc([N+](=O)[O-])cn2)c(C)n1-c1cccc(C(=O)O)c1`, the Potency is reported as active: 15.8 µM.
`CCCN(Cc1cc2ccc(C)cc2[nH]c1=O)C(=O)c1ccccn1` was tested, and the Potency was active: 31.6 µM.
In the case of `O=c1oc(/C=C/c2ccco2)nc2sc3c(c12)CCC3`, the Potency is reported as inconclusive: 8.91 µM [inhibitor, single point].
With `COc1ccc(/C(=C/c2ccc(OC(F)F)c(OC)c2)C(=O)O)cc1OC` the Potency was inconclusive: 89.1 µM [inhibitor, single point].
For `O=C(c1cccs1)N1CCN(c2cccc(Cl)c2)CC1`, the Potency was “inactive”.
With `CSC1=NS(=O)(=O)c2c(C)nn(C)c2S1` the Potency was active: 1.12 µM.
For `CC1(C(=O)c2ccccc2)C2c3c(ccc4ccccc34)OC(=O)C21C(=O)N1CCOCC1` (centres undefined), the Potency was active: 79.4 µM.
With `O=C(O)CCCN1C(=O)C(=O)/C(=C(/O)c2ccc(Cl)cc2)C1c1ccccc1` (centres undefined) the Potency was inconclusive: 89.1 µM [inhibitor, single point].
With `CC(=O)Nc1ccc(S(=O)(=O)N(C)Cc2cnn(C)c2)cc1` the Potency was “inactive”.
With `O=C(O)CCn1[nH]c(=O)c2ccccc2c1=O` the Potency was inconclusive: 89.1 µM [inhibitor, partial curve, poor fit].
With `CCCn1nnnc1SCC(=O)NCc1cccs1` the Potency was “inactive”.
`CC1CCc2nn(CC(=O)NCc3ccc4c(c3)OCO4)cc2C1` (centres undefined) was tested, and the Potency was inconclusive: 56.2 µM [inhibitor, partial curve].
In the case of `CCN(CC(=O)Nc1ccc2c(c1)OCCO2)C(=O)/C=C/c1ccc([N+](=O)[O-])cc1`, the Potency is reported as inconclusive: 31.6 µM [inhibitor, single point].
With `CCOc1cc(N2CCOCC2)c(OCC)cc1NC(=O)COc1cccc(CC)c1` the Potency was inconclusive: 6.31 µM [inhibitor, single point].
In the case of `CSc1ccccc1NC(=O)C1=CC(c2cccs2)=NS(=O)(=O)N1C`, the Potency is reported as active: 35.5 µM.
For `CSC1=NC2(CCN(C(=O)NC3CCCCC3)CC2)N=C1c1ccc(C)cc1`, the Potency was “inactive”.
For `CCOC(=O)CN1C(=O)CN(c2ccc(C)cc2)C1=O`, the Potency was “inactive”.
With `O=C(O)C1(S(=O)(=O)CCC(F)=C(F)F)CC1` the Potency was inconclusive: 79.4 µM [inhibitor, single point].
With `COCCCNCCOCCOc1ccccc1-c1ccccc1` the Potency was inconclusive: 31.6 µM [inhibitor, partial curve, poor fit].
For `COc1ccc(/C=N/NC(=O)c2ccc(Cn3cc([N+](=O)[O-])cn3)o2)cc1O`, the activity, negative = inhibition was inactive: -20.3% [at 12.7 µM].
For `N#Cc1nc(Cc2cccc3ccccc23)oc1NCCN1CCCCC1`, the Potency was inconclusive: 14.1 µM [inhibitor, partial curve].
`O=C(C1COc2ccccc2O1)N(Cc1cccnc1)c1nc2ccc(Cl)cc2s1` (centres undefined) was tested, and the Potency was “inactive”.
In the case of `CCc1cccc(C)c1Nc1c(-c2ccccc2)nc2sccn12`, the Potency is reported as inconclusive: 35.5 µM [inhibitor, single point].
In the case of `O=[N+]([O-])c1cccc(-c2csc(N/N=C/c3cccc(O)c3)n2)c1`, the Potency is reported as active: 35.5 µM.
For `COc1ccc(C2NC(=O)C(C#N)=C(S)N2c2cccc(C)c2)cc1OC` (centres undefined), the Potency was active: 39.8 µM.
In the case of `Cc1cccc(-n2cc(-c3ccccc3)c3c(NN4CCOCC4)ncnc32)c1`, the Potency is reported as inconclusive: 39.8 µM [inhibitor, single point].
In the case of `CCOC(=O)C1=C(C)OC(N)=C(C#N)C1c1ccc(OC)c(C)c1OC` (centres undefined), the Potency is reported as inconclusive: 2.24 µM [inhibitor, partial curve, poor fit].
With `CCN(CC)S(=O)(=O)c1nnc(NC(=O)COc2ccccc2F)s1` the Potency was inconclusive: 8.91 µM [inhibitor, partial curve].
`O=S(=O)(c1ccccc1)N1CCC2(CCN(c3ccc(-c4ccccc4)cc3)CC2)CC1` was tested, and the activity, negative = inhibition was inactive: -5.29% [at 12.7 µM].
In the case of `CN(C)S(=O)(=O)c1cc(NC(=O)CN2CCN(c3ccc(O)cc3)CC2)ccc1Cl`, the Potency is reported as active: 3.98 µM.
In the case of `Cc1cccc(C)c1NC(=O)NCCc1c[nH]c2ccccc12`, the Potency is reported as “inactive”.
For `N#CC1=C(c2ccccc2)/C(=C/c2ccccc2)OC1=O`, the Potency was active: 12.6 µM.
With `CCC(=O)N1c2ccccc2-c2nnc(SC)nc2OC1c1ccc(OC)c(OC)c1` (centres undefined) the Potency was inconclusive: 89.1 µM [inhibitor, single point].
In the case of `CC(=O)N1CCc2cc(S(=O)(=O)NCCC(=O)NC3CCCc4ccccc43)ccc21` (centres undefined), the Potency is reported as inconclusive: 7.08 µM [inhibitor, partial curve].
With `Cc1ccc2c(c1)-c1onc(C(=O)N3CCN(c4ccc(Cl)cc4)CC3)c1CO2` the Potency was “inactive”.
With `CCOC(=O)C1(Cc2cccc(OC)c2)CCCN(C(=O)c2cc(C)on2)C1` (centres undefined) the Potency was inconclusive: 79.4 µM [inhibitor, partial curve, poor fit].
`CC1=[N+]([O-])C(C)(C)N(O)C1(C)C` was tested, and the Potency was “inactive”.
With `CCCS(=O)(=O)N1CCC(C(=O)NCCN(CC)c2ccccc2)CC1` the activity, negative = inhibition was inconclusive: -75.8% [inhibitor].
With `CSc1cccc(NC(=O)CCCOc2ccc(Cl)cc2Cl)c1` the Potency was “inactive”.
`O=S(=O)(c1ccc(Cl)cc1)c1snnc1-c1ccccc1` was tested, and the Potency was “inactive”.
In the case of `Cc1ccc(-n2c3nc(=O)[nH]c(=O)c-3cc3c(C)nn(-c4ccccc4)c32)cc1Cl`, the Potency is reported as “inactive”.
`Cc1oc(-c2ccc(Cl)cc2)nc1CS(=O)CC(=O)N1CCN(c2cccc(C(F)(F)F)c2)CC1` (centres undefined) was tested, and the Potency was inconclusive: 10 µM [inhibitor, partial curve, poor fit].
